Structures are written as SMILES. Screen size: about 310,000 compounds; about 2,200 (0.71%) showed an effect of 50% or more. Effects have a minus sign here. Some of the results follow.

Sequence of human ether-à-go-go-related gene (hERG) potassium channel (Q12809 whole entry, looked up): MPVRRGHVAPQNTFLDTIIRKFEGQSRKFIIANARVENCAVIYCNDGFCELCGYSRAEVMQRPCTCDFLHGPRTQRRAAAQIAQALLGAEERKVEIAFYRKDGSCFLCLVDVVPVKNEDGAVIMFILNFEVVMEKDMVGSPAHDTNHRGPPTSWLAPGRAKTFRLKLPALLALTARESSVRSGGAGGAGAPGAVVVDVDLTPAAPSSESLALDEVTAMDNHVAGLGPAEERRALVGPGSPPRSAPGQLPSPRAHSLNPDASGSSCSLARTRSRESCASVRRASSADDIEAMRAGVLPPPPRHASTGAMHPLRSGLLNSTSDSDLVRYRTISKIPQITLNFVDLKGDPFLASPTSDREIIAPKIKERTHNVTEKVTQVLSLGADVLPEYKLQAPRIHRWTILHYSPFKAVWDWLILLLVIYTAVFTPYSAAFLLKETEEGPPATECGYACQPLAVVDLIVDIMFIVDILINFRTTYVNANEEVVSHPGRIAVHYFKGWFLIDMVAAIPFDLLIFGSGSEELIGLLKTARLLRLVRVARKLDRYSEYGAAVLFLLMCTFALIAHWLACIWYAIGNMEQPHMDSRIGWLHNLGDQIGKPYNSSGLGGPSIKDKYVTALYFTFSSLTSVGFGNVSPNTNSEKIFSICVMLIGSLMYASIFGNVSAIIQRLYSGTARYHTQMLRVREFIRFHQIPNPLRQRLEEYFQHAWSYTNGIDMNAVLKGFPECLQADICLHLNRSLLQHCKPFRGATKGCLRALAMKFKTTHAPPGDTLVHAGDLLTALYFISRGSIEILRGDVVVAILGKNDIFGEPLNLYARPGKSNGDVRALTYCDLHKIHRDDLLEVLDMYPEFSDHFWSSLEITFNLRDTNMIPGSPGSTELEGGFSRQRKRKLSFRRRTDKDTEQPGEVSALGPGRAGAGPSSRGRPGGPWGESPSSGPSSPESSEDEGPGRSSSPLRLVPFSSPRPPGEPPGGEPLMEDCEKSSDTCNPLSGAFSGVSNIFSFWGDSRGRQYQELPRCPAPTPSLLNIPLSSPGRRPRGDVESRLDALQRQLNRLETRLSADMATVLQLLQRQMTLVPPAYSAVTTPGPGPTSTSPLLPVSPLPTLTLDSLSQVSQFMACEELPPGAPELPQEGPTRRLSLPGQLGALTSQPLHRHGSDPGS

The assay concerns the target human ether-à-go-go-related gene (hERG) potassium channel (human, UniProt Q12809). The experiment in a line: primary screen, population patch clamp on CHO cells stably expressing hERG.
Consider `CCOC(=O)N1CCN(C(=O)COc2cc(C)c(Cl)c(C)c2)CC1`, for which the “hERG current change (%, negative = inhibition) at 1uM” value turned out to be 3.75%. `CCOC(=O)Nc1ccc(S(=O)(=O)Nc2cc(C)on2)cc1`: the “hERG current change (%, negative = inhibition) at 1uM” value was determined as 7.87%.

For `Cc1ccccc1OC(=O)C1C(c2ccccc2)C(C(=O)O)C1c1ccccc1` (stereo not shown), the “hERG current change (%, negative = inhibition) at 1uM” value worked out at 1.33%. Under `CN1N=C(C(C)(C)C)CSC1=Nc1ccc(F)cc1` stands 8.14%; under `CC(C)=Nc1ccccc1C1COC(=O)C1=N` (stereo not shown), 1.12%.

On to `CCC(=O)N1CCCn2c1nc1ccccc12`, for which the “hERG current change (%, negative = inhibition) at 1uM” value came to 2.19%. Take `COc1ccc(C(=O)C2CCCN(Cc3ccc(Sc4nncn4C)o3)C2)cc1F` (stereo not shown): the “hERG current change (%, negative = inhibition) at 1uM” value turned out to be 7.53%. Next, `CC(=O)Nc1ccc(NC(=O)Nc2cccc(C)c2C)cc1`: 18.6%. For `Cc1cccc(NC(=O)Nc2nnc(-c3ccccc3)o2)c1`, the “hERG current change (%, negative = inhibition) at 1uM” value came out at 12.6%. As for `COc1cccc(-n2c(=O)c3cc(OC)c(OC)cc3n(CC(=O)Nc3cc(C)[nH]n3)c2=O)c1`, the “hERG current change (%, negative = inhibition) at 1uM” value was 11.3%. Under `Cc1ccc(S(=O)(=O)N2CCN(C(=O)CCn3cncn3)CC2)cc1C` stands 9.41%; under `CCCCC(CCC(=O)Nc1ccc(C(=O)OC)cc1)C(=O)O` (stereo not shown), 11.9%. Next, `Cc1nn(Cc2ccccc2)c(C)c1C(=O)NCC(c1cccs1)N1CCOCC1` (stereo not shown): 5.84%. With `COc1ccc(N2CCN(CCCNC(=O)c3ccc(CS(=O)(=O)c4ccc(OC)cc4)o3)CC2)cc1`, the “hERG current change (%, negative = inhibition) at 1uM” value was -43.1%. For the compound `COc1cccc(/C=C(/CC(=O)Nc2ccc(N3CCOCC3)cc2)c2nc3ccccc3s2)c1`, the “hERG current change (%, negative = inhibition) at 1uM” value amounted to 12.7%. Regarding `COc1cc(C(=O)NNC2=NC(C)(C)Cc3cc(C)c(C)cc32)cc(OC)c1OC`, the “hERG current change (%, negative = inhibition) at 1uM” value was 16.8%. Regarding `COc1cccc(NC(=O)CCC2CCN(C(=O)c3scnc3C)CC2)c1`, the “hERG current change (%, negative = inhibition) at 1uM” value came to 4.22%. Next, `Cc1ccnc2nc(C(=O)OCC(=O)NC3CCCC(C)C3C)nn12` (stereo not shown): 2.22%; `CN(CCO)c1nc(NCc2ccccc2)c2cnn(C)c2n1`: 14.7%. Next, `CCCn1c(C(=O)c2ccccc2OC)nc2ccccc21`: -5.99%.

For `CSCCCN1CC[C@@H](N2CCN(c3ccccc3F)CC2)[C@H](O)C1`, the “hERG current change (%, negative = inhibition) at 1uM” value is recorded as 3.23%. Under `Cc1ccccc1-c1nc(CS(=O)(=O)CC(=O)N2CCCCC2)c(C)o1` stands 2.38%; under `COc1ccccc1CNC(=O)C(C)NS(=O)(=O)c1ccccc1` (stereo not shown), 5.92%.

For `Cc1noc(C)c1COc1cccc(C(=O)N2CCc3ccccc32)c1`, the “hERG current change (%, negative = inhibition) at 1uM” value was found to be 8.04%.

As for `O=C(CSc1nnc(Cc2cc(=O)[nH]c(=O)[nH]2)n1-c1ccccc1)N1CCCC1`, the “hERG current change (%, negative = inhibition) at 1uM” value is reported as 20.2%. As for `O=C(COc1ccc2ccccc2c1)Nc1cccc2c1C(=O)NC2=O`, the “hERG current change (%, negative = inhibition) at 1uM” value is 9.53%.

As to `Cc1nc(C#N)c(N/N=C/c2cccc(Cl)c2)o1`, the “hERG current change (%, negative = inhibition) at 1uM” value amounted to 5.76%. Regarding `CCCCOc1ccc(Cc2c(Cl)nc(SC)nc2N2CCOCC2)cc1`, the “hERG current change (%, negative = inhibition) at 1uM” value came out at 14.9%. Under `CCSc1nnc(NC(=O)C2C3C=CC(C3)C2C(=O)O)s1` (stereo not shown) stands 6.02%; under `CN(C(=O)c1cc(COc2ccc(F)cc2Cl)on1)C1CCCc2ccccc21` (stereo not shown), 15.2%; under `CCCc1[nH]nc2c1C(c1ccc(Br)s1)C(C#N)=C(N)O2` (stereo not shown), 7.85%. Take `COc1ccc(C(=O)/C=C/Nc2ccc(S(=O)(=O)Nc3nc(C)cc(C)n3)cc2)c(OC)c1`: the “hERG current change (%, negative = inhibition) at 1uM” value stood at 5.35%. Under `Cc1noc(C)c1S(=O)(=O)N(C)CC(=O)NCc1ccccc1` stands 2.24%; under `Cn1nnnc1SCC(=O)N1CCN(S(=O)(=O)c2ccc(Cl)cc2)CC1`, 4.43%.

As for `CC1CCN(C(=O)C(NS(=O)(=O)c2cccc3nsnc23)c2ccccc2)CC1` (stereo not shown), the “hERG current change (%, negative = inhibition) at 1uM” value is -30%. For the compound `CCOc1ccc(Cl)cc1S(=O)(=O)n1cnc2ccccc21`, the “hERG current change (%, negative = inhibition) at 1uM” value was 0.503%. Consider `COc1ccc(-n2nc([N+](=O)[O-])c(=NCc3ccco3)n2O)cc1`, for which the “hERG current change (%, negative = inhibition) at 1uM” value stood at 13.4%. Under `CCC(=O)N=c1sc2c(C)cc(C)cc2n1CC(=O)OC` stands 3.44%; under `O=C(NCCS(=O)(=O)N1CCN(c2ccccc2F)CC1)C1CC(=O)N(c2ccccc2)C1` (stereo not shown), 11.6%; under `CC1Cc2ccccc2N1C(=O)c1cc2sccc2n1Cc1ccc(F)cc1` (stereo not shown), 15.9%. `COc1ccc(CNC(=S)Nc2ccccc2Cl)cc1`: the “hERG current change (%, negative = inhibition) at 1uM” value worked out at 12.8%. Next, `Cc1cc(NC(=O)C(C)SCC(=O)Nc2ccccc2C(C)(C)C)no1` (stereo not shown): 11.1%. Turning to `O=C(CN1C(=O)NC2(CCc3ccccc32)C1=O)c1ccc(F)cc1` (stereo not shown), the “hERG current change (%, negative = inhibition) at 1uM” value is -41.7%.

On to `COc1ccc(NC(=S)N/N=C/c2ccc(F)cc2)cc1OC`, for which the “hERG current change (%, negative = inhibition) at 1uM” value was 15.5%.

In the case of `COc1ccccc1NC(=O)CCCCCN1C(=O)c2cccc([N+](=O)[O-])c2C1=O`, the “hERG current change (%, negative = inhibition) at 1uM” value was determined as 7.21%. Take `CCC1CCCCN1CCCNC(=O)C1CCCN(S(=O)(=O)N2CC(C)CC(C)C2)C1` (stereo not shown): the “hERG current change (%, negative = inhibition) at 1uM” value is 9.94%. Turning to `O=C(CSc1nccc(=O)[nH]1)Nc1ccc(F)c(Cl)c1`, the “hERG current change (%, negative = inhibition) at 1uM” value is given as 9.56%.

Consider `COc1cc(Nc2c3c(nc4ccccc24)CCCC3)cc(OC)c1OC`, for which the “hERG current change (%, negative = inhibition) at 1uM” value is on record as -48.3%.

Regarding `N#Cc1ccc(C(=O)N(Cc2ccccc2)c2ccccc2)cc1`, the “hERG current change (%, negative = inhibition) at 1uM” value is recorded as 6.37%. In the case of `c1cncc(C(c2nnnn2C2CCCCC2)N2CCCCC2)c1` (stereo not shown), the “hERG current change (%, negative = inhibition) at 1uM” value stood at 5.55%. Next, `Cc1ccc(C(=O)NNC(=O)Cc2ccccc2)cc1`: 3.37%. Next, `CC(C)[C@H](NC(=O)OCc1ccccc1)C(=O)OCc1ccccc1`: 9.37%.

Take `CCCCOc1cccc(C(=O)NC(=S)Nc2cccnc2)c1`: the “hERG current change (%, negative = inhibition) at 1uM” value is listed as 8.87%. Consider `COc1cc2oc3ccc(C#Cc4ccc(N)cc4)cc3c(=O)c2cc1OC`, for which the “hERG current change (%, negative = inhibition) at 1uM” value turned out to be 11.4%.

For `CCOC(=O)Cc1cnc(NC(=O)CSc2nc3ncnc(N)c3[nH]2)s1`, the “hERG current change (%, negative = inhibition) at 1uM” value was 7.19%. Under `Cc1cc(C)c(S(=O)(=O)N(C)CC(=O)NCCN2CCOCC2)c(C)c1` stands -5.19%; under `Cc1c(C(=O)N2CCN(c3ccc(F)cc3)CC2)sc2ncnc(N3CCN(c4ccccn4)CC3)c12`, 12.1%. Next, `CCOC(=O)N(C)c1ccc(C(O)(C(=O)OCC)C(F)(F)F)cc1` (stereo not shown): 2.99%. For `CCc1noc(C)c1C(=O)Oc1ccc(N(C)S(=O)(=O)c2ccc(C)c(C)c2)cc1`, the “hERG current change (%, negative = inhibition) at 1uM” value is on record as 14.7%. Next, `O=C(Nc1ccc(O)cc1)C1CC=CCC1` (stereo not shown): -2.83%; `COCC(=O)Nc1cc(C)cn(Cc2ccc(F)cc2)c1=O`: -3.54%; `O=C1N/C(=N\N=C\c2ccc3ncccc3c2)SC1Cc1ccc(SC(F)F)cc1` (stereo not shown): 13.7%.

Regarding `Cc1cccc(NC(=O)c2cnn(-c3ccc(F)cc3)c2C2CCNCC2)c1C.Cl`, the “hERG current change (%, negative = inhibition) at 1uM” value turned out to be 9.34%. Under `Cc1c(Cl)c(-c2n[nH]c(=S)n2CC(C)C)nn1C` stands 8.72%; under `CCOc1cc(C(=O)Oc2cc(C)[nH]c(=O)c2[N+](=O)[O-])cc(OCC)c1OCC`, 15.3%. Under `NC(=O)CSc1nnc(-c2cc3ccccc3o2)n1Cc1ccccc1` stands 8.82%; under `Cc1nc2c(-c3ccccc3)cnn2c(N2CCOCC2)c1C`, 9.27%; under `COC(=O)Cn1cc(/C=C/c2cc[n+](C)cc2)c2ccccc21.[I-]`, 9.15%. Turning to `CCCCCC(=O)Nc1nc(C)c(-c2csc(Nc3cc(Cl)ccc3C)n2)s1`, the “hERG current change (%, negative = inhibition) at 1uM” value worked out at 25.3%. Under `Cc1ccccc1-c1nc2sc3c(c2c(=O)n1N)CCCC3` stands 2.25%; under `Cc1cccc(NC(=O)CCS(=O)(=O)c2ccc(Cl)cc2)c1`, 5.06%; under `CN1CCC(N(C)CC(C)(C)NS(=O)(=O)c2ccccc2)CC1.Cl`, 0.229%.

For `O=C(C[n+]1ccc(/C=N/O)cc1)NC1CCCCC1.[Cl-]`, the “hERG current change (%, negative = inhibition) at 1uM” value is recorded as 9.12%. Under `O=C(/C=C/c1cccc([N+](=O)[O-])c1)OCC1CCCO1` (stereo not shown) stands 13.3%. Under `Cc1ccc(-c2noc(C3CCN(S(C)(=O)=O)CC3)n2)o1` stands -10%; under `C/C(=N\NC(=O)c1nn(C)c(C)c1Br)c1ccc(NC(=O)c2ccoc2C)cc1`, 10.1%; under `CCO/C=N/Nc1nc(C(F)(F)F)nc2c1cnn2Cc1ccccc1`, 12.7%. Take `CC(C)(C)c1cc(/C=N/NC(=O)C[n+]2ccccc2)cc(C(C)(C)C)c1O.[Cl-]`: the “hERG current change (%, negative = inhibition) at 1uM” value was 23.4%. Under `Cn1c(CC(=O)Nc2ccc(Cl)c(Cl)c2)n[nH]c1=S` stands 8.62%; under `Cc1cccc(NC(=O)c2ccc3c(=O)n(CC4CCCO4)c(=S)[nH]c3c2)c1` (stereo not shown), 16.4%. Next, `COc1cc(-c2nnc(COc3ccc(Cl)cc3C)o2)cc(OC)c1OC`: -1.37%; `COc1ccc(-c2nn(-c3ccccc3)cc2C(=O)N2CCN(S(=O)(=O)c3ccccc3C#N)CC2)cc1`: -6.64%; `COc1cccc(N(CC(=O)N2CCCCCC2)S(C)(=O)=O)c1`: 15.7%. With `COC(=O)c1ccc(CN2C(=O)NC(CC(C)C)C2=O)cc1` (stereo not shown), the “hERG current change (%, negative = inhibition) at 1uM” value stood at 10.5%.

Turning to `COc1ccc(C)cc1S(=O)(=O)NCCC1=CCCCC1`, the “hERG current change (%, negative = inhibition) at 1uM” value is reported as -0.114%. Under `Cc1c(C(=O)Nc2cccnc2Cl)oc2ccccc12` stands 11.6%; under `O=C(Nc1ccc(F)cc1F)c1cc2nc3c(c(C(F)(F)F)n2n1)CCCC3`, 0.979%; under `CCCCNC(=O)c1nn2cc(Br)cnc2c1Br`, -32.8%.
